Assay results reported in the supplement of paper PMC3334620.
Over roughly 33,000 sequences, “E-score (-0.5 to 0.5)” has its median near -0.013; the highest 2% begin near 0.3. The list shows a part of the results.

target: T1, Msn1 (UniProt P22148); assay: PBM E-score (8-mer binding enrichment) (E-score (-0.5 to 0.5)); higher = stronger / more preferred TF binding; most listed sequences are background and not binding sites; conditions: protein concentration: 200 nM; construct: GST-full length
T1 sequence: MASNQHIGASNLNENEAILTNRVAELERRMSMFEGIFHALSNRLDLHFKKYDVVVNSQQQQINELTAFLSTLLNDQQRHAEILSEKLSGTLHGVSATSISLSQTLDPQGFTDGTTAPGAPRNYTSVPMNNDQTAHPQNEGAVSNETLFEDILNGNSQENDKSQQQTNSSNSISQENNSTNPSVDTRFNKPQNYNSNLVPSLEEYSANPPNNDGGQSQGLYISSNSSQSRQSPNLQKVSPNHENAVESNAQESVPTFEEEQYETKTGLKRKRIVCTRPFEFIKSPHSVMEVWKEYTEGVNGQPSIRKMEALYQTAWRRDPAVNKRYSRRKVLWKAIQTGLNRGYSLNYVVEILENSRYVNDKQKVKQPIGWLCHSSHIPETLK
How it was run: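 Yeast transcription factors carrying a GST tag, as full-length proteins or DNA-binding domains, were produced by PURExpress in vitro transcription/translation. About 100-200 nM protein was applied to universal all-10-mer Agilent arrays, double-stranded by primer extension on fresh or once-stripped slides. Bound protein was detected with fluorescent anti-GST, and scans were normalised with masliner. The Universal PBM Analysis Suite gave each ungapped eight-base word, pooled with its reverse complement, an E-score, a modified Wilcoxon-Mann-Whitney statistic.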

Sequence	PBM E-score
CAACGTTA	0.201
GACGGGGC	-0.252
AATTCACA	-0.00444
AATAAGCG	-0.034
CCCGTAGC	-0.102
CTACACAC	-0.11
ACCCAGAG	-0.198
CCCGCCAG	-0.169
CTACGACA	0.311
CGTTAGGC	-0.246
CAAAAAGA	0.0247
AACCTACT	-0.114
CTCGGAGC	0.124
AAGGGTGC	-0.0869
TAGTCTCA	0.0523
ACCCCACA	-0.0822
CATTTCCG	0.288
GTCACTAA	0.128
ATTACCGC	0.132
TCAAGGGA	0.0607
AGGCGCGA	0.0737
GCTTCCCC	-0.325
ATCAACCC	0.00232
AGCTCCAA	0.041
GGCCTCGA	-0.0622

Sequence	PBM E-score
CCTGGCAA	-0.0698
CACCGACC	-0.197
ACTGCGAT	-0.0979
AGACCGCA	-0.0323
AATGTTAA	-0.0123
CAAGCAAG	-0.101
GGAGATCC	-0.129
TTGCAAAA	0.0627
AATGTCTA	0.454
CGGGGGGA	-0.396
GACCCGTC	-0.249
AACATATA	0.0881
AGGGCTGG	-0.174
CTAAGTTC	-0.124
CATTTGGA	0.209
AGAGTTCA	-0.125
AGTGCGTA	-0.168
ACCACGTA	-0.2
GAAGGATC	-0.238
CGAGGAAG	-0.175
CAATACCG	-0.113
CGTGAGCA	-0.23
GACAGTGC	0.00339
ACTTCTCA	0.0991
ATTTTACC	0.231

Sequence	PBM E-score
CGCTTCCA	-0.13
GTTTGGAA	0.0732
ATAGGCGG	0.123
GGACAGAC	0.375
CGCGACAC	0.118
CCTTTCAG	-0.0397
GGAGCGCA	-0.345
CAAGTTAC	0.064
CCTTATGA	0.0601
TCAGACCA	-0.0852
AGCTTGAA	-0.0497
GAACTAAA	0.131
ATCATCTG	0.0633
ACCATTTG	0.114
AAGATTTC	0.0737
AGTAGCTG	-0.0836
AACTATAT	0.215
GAGGCGTA	-0.118
CGTGCTAG	-0.122
CGTGTCAA	-0.104
CAGTCCCG	-0.153
GCGATTAA	0.101
GTTACTCA	0.043
CTTGCGCA	0.0933
CGGGATGC	-0.168

Sequence	PBM E-score
CGTGATGC	-0.147
CCGACGGC	-0.0173
GCGCATTA	0.0379
AGATCTTA	0.0143
ATCAAGCG	0.0736
CATTTCGC	0.175
CTTTGCGC	-0.0143
AAAATGAA	-0.00087
CGACGGAC	0.229
CCATTGGA	-0.0624
GATGTGTA	-0.00302
ACATGCGT	0.0734
GTTTGAAA	0.0809
ACAATGTG	0.0288
GCCACATA	-0.00313
CGCTTACC	-0.0094
CACCACCA	-0.262
AAATGCGG	0.11
CCTTAACG	0.0499
AGAAATAC	-0.017
AGGATACG	-0.105
CTTTCTTC	-0.0175
CGATGTAG	0.202
AACAAATT	0.157
GGAACATA	0.124

Sequence	PBM E-score
CTAACGGA	0.137
AGCTAGCT	-0.0901
AGTATTTA	0.134
CTGAAACA	0.0997
ATGGTAGA	0.0607
AACACGGT	-0.00479
GAGGAGGC	-0.35
AGCTAGTA	0.0996
CTTCAAAC	-0.0434
GCGATGAA	0.138
CACGTGGC	-0.168
CCTGTTTA	-0.0126
CGAGTAAG	0.0979
GGACCACC	-0.165
GGCCCACA	-0.113
CTTAAACC	0.00747
GACAATCA	0.217
ATCCGTAC	0.1
ACATGCAA	0.0293
ACAAGTGG	0.152
CGATGAAC	-0.0621
AGGCGGTC	-0.0693
CCTCGCGA	-0.188
ACAGCAAT	0.138
GAGCAGCA	0.0385

Sequence	PBM E-score
CCGTTCCC	-0.165
ATACGATC	0.106
GATCTGCC	-0.0561
AAAGAATC	-0.0643
AAGGGGTG	-0.0822
ACTTCGAT	0.0414
CGCTACTC	0.0548
AGTGTAGC	-0.0951
GCCTGCAA	-0.0526
AGAGCTAG	-0.12
CTAGAGGA	0.00357
GTAGTCAC	-0.0991
GAAAAGTA	0.167
AATGTGCA	0.0661
GTAAATAC	-0.0147
AGTGAGCG	0.0187
AAGCAAGC	-0.012
GGAGTGCA	-0.159
TTGCGAAA	0.0731
AAGTTTCC	-0.0421
GAATGAGA	-0.132
AGCATGGG	-0.242
GGGACGTA	0.0883
AAAAGTGT	0.0256
GCTCCCCA	-0.338

Sequence	PBM E-score
CTTGGGCA	0.113
ATACGTAT	0.123
AACGATTA	-0.13
ATCGGCGA	-0.0922
ATAGATTC	-0.0916
ACCCTGCA	-0.0836
ATGGCACG	-0.29
CAACATGG	0.0147
CTGTAGCC	0.0564
GCTCACCA	-0.00029
TGTAGCAA	0.0325
GGGCAGGA	-0.097
AAGCTTCC	-0.0608
ATTATGTC	0.367
AATTACCA	0.0886
CTAACCTA	-0.0276
GAATCGAC	0.0159
GAGACTGA	-0.0203
GCCCATAA	-0.242
CGCTTACA	-0.0076
AGTACCGG	0.0467
AGAATACC	0.0521
CTAAGTAG	0.0501
GAGGTCGC	-0.186
CGAGACTC	-0.00493

Sequence	PBM E-score
GACCGGGC	-0.0657
TAGTTTAA	0.178
AACTCATT	-0.14
CATGCATG	0.0791
AGTGGCCA	-0.106
ACCGCCGT	-0.0448
TAACCCTA	-0.0127
GCGTAGCA	-0.0678
ATATTCAA	0.169
GGACAAGA	0.458
ACCGGATC	-0.0837
GTCCCCCA	-0.119
CCTAAGAA	0.21
GCAATGCC	-0.0403
CCACGTAA	-0.0608
AATTAGAT	0.192
GCATCGCA	-0.322
GCCGAAAC	0.0415
AACGATAC	-0.00372
GATAGTCC	0.122
CCACTCCG	-0.144
CTTAGTCA	0.0007
AAGCTACG	-0.14
GTATTGGA	0.00477
AAGGTTGG	-0.102

Sequence	PBM E-score
GATTGAGA	0.025
CAGTAATC	-0.0275
AGACAAAG	0.364
AACTTTAT	0.0939
TAATAACA	0.216
GCCATGTA	-0.012
ACGATCCA	-0.0547
CCTCTAAC	0.0154
GGCTAAAA	0.0789
ACTGACAT	0.249
ATAGATCC	-0.0574
AGACGAGA	-0.0568
CGAATGAG	-0.0247
ATTTTACG	0.199
GTTCATAA	-0.0351
AATCTACC	0.0273
GTCTGTTA	0.161
GACACCTA	0.111
CCATATAC	0.153
CAGCAGTC	-0.149
AGGGCGGC	-0.196
ACACTTCT	0.0937
ATTGATAG	0.156
CTATGAAA	0.0195
ATATAACA	0.197

Sequence	PBM E-score
ACTGTCCG	0.183
TACAACAA	0.203
TGCGTACA	0.102
CGCTGAGA	0.0389
AACCTTAC	0.106
CTGTGGTA	0.0657
GCCAGAAA	0.0601
ACTTTGGA	0.138
CTGGGAAC	-0.0254
GCATCCAC	-0.0364
GGTTTAAC	0.00524
ACTCTCTC	-0.185
ATGCGTTG	-0.0136
AGTATACA	0.169
ACTGTTTG	0.0487
GACTTAAA	0.145
CAGAGCAG	-0.113
ACAAGAAT	0.223
AATTGTAC	0.365
ACGGCCCG	-0.181
CAACATAC	0.0974
GAGTGCGA	0.00502
CTTAAGCC	-0.0426
ACTTCACA	0.0485
CCCAACGC	0.0471

Sequence	PBM E-score
CCAACTAC	-0.0374
TATTAATA	-0.134
CCATCGAG	0.0161
CCGCTCAG	-0.268
ACGGACAC	0.344
CTCCTCGA	-0.186
CTTCGCGC	0.0725
CAACACGG	-0.13
CAGCCTAA	-0.0854
AAGGGACT	0.0205
GACACAGA	0.204
AAGATTCA	0.14
AAGACTAT	-0.0507
AATGGTTA	-0.0777
CCACGCCG	-0.112
AAGGCAGA	-0.14
CTCTGGTC	-0.201
GTCTCCAC	-0.115
CCCTATAA	-0.134
ACGTACTC	0.00233
CGATCCTC	-0.0924
TCCATAAA	0.00441
AGATAATC	0.094
GATCCAGA	-0.00709
CAGCGATA	-0.125

Sequence	PBM E-score
CAGGTTCA	-0.149
CTGGACTA	-0.128
CGTGTGAA	0.125
GCGATCTA	0.0372
CCAAGGAG	-0.129
ATCGAGAC	0.031
AGCCATAT	0.00713
ATCGTGCA	0.125
AACTATTA	0.0997
CTGGTCCC	-0.218
CCAACGAG	-0.068
ACTTAATG	0.197
GTCGCTAA	0.133
ATATTATG	0.269
ATATGCAA	0.143
CATCCTCG	-0.144
AGCGTTCC	-0.0981
CTATTGAG	0.0896
GATTAATC	0.0343
CTACTCTA	0.125
ATTTGGTA	0.225
CGATTAAA	0.0941
GATCTGAC	0.0382
CCCGGGTC	-0.203
AGCGCGGC	-0.0748

Sequence	PBM E-score
CGGGTAAA	0.0524
AAGAAATG	0.185
CCTCACCA	-0.243
AGGGCTCG	-0.415
ACCGAGGG	-0.34
ATTTTTGA	0.0575
AAGTGGTA	0.0573
ACAAGCGC	0.105
CTGCCACC	-0.301
ACCGAATC	-0.0187
ACGCATCT	0.0951
GCATGTCC	0.459
CAGTCGCA	-0.207
CATGATAA	0.0379
CGGCTCAG	-0.0278
TGTAGACA	0.261
ACGCATAG	-0.171
ATCGTGTA	-0.0605
CTCGGAAC	0.265
CTGTTCTA	0.0719
CGGGGCCA	-0.157
CACACCTA	0.0593
ACGCATAT	0.157
CAATTATG	0.182
ACTGGCAT	-0.17

Sequence	PBM E-score
CCTCGTTC	-0.202
TATTACGA	0.125
AATCCCAA	-0.0751
ATCAAACA	0.116
ATATTGAT	0.131
TTTCGAAA	0.236
AGGTACTG	-0.0599
GGGACCAC	-0.255
AAATTAAC	0.0769
AGCCGATG	0.0723
ACGGAGAT	-0.151
ATTAGACA	0.295
CCCAGCGC	-0.0762
AATTGCAA	0.119
CATGCGCC	0.122
AACAGGTT	-0.0971
CAATCAGC	-0.122
AGTTCATG	0.146
AATTGATG	0.23
